# The other results are listed elsewhere or left out.
# T1: UNK ZnF1-3 (human, UniProt Q9C0B0 31-174)
# T1 sequence: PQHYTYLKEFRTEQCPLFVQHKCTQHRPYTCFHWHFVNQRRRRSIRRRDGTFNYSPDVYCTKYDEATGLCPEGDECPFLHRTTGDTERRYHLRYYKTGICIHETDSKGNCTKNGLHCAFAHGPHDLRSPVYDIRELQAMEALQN
# B1: chr12:36856662:36856663:-_ENSMUSG00000020547_ENSMUST00000020856|mus_hu|FALSE|FALSE (ssRNA)
# RNA: GGGAGUUCUACAGUCCGACGAUCAAGCAUACUGCCAGCCACCAGGAUAUCGAAGAGUGUGUCUGCAUAGCGACGAUAAUCUAAUCUUGAGCCUGUAGAGUCCAGAAAUUUGGCUACAGCUUCAAGGUCAUCACCAGCCUCAUUCAACAGAGGAUUGAGCAUCA
# B2: chr22:24237240:24237241:+_ENSG00000240972_ENST00000215754|hu_hu|FALSE|FALSE (ssRNA)
# RNA: GGGAGUUCUACAGUCCGACGAUCCUCUUAGGCGAAGGUGGAGUUGUUCCAGCCCACAUUGGCCGCGUUCAUGUCGUAAUAGUUGAUGUAGACCCUGUCCGGGCUGAUGCGCAGGCGCUCGGCCAGCAGGCCGCACAGCAGCUUCAACAGAGGAUUGAGCAUCA
# B3: chr9:119461815:119461816:+_ENSG00000119401_ENST00000373983|hu_hu|motif|central (ssRNA)
# RNA: GGGAGUUCUACAGUCCGACGAUCCUUAGGAGUUAGGGCUAUGCCCACCGGACAGGUAAGUCCCUCUCGAAUAAGGACACGGUAGCCCCCACCCUUAGGAAAAUGGAGAAUUUCCUUGCGACUACUGUCAGCCACGAUGAGAUCCAACAGAGGAUUGAGCAUCA
# B4: 90390320_90390440_12308_CDS_ENSG00000112159_ENST00000369393|human|control|control (ssRNA)
# RNA: GGGAGUUCUACAGUCCGACGAUCAAGGCCCUCCACAAGGCGAGGCAGGGGGCUCUCCUUCAUGAACGUCAGGCACAUCUUCCUCAUGCGUUUCCUGAGCUUUGGCAAGCGACGCAGAAGCUCCCCUUCCAAGCCGGAAGGAGCCAACAGAGGAUUGAGCAUCA
# B5: chr2:169020305:169020306:-_ENSG00000198648_ENST00000355999|hu_hu|FALSE|FALSE (ssRNA)
# RNA: GGGAGUUCUACAGUCCGACGAUCCUGACCGUUUCUGUGUAGAUAGUCUAAGCCUUCCAAAACCUCUUUAAGAAUUGUUGCUAUUAUUGCCUCUUCCAGAACUCCAUUCUUGUGUUCUCCUCGGUUGACAAUGUAUUUUAUGAUCAACAGAGGAUUGAGCAUCA
# B6: chr22:32879901:32879902:+_ENSG00000100225_ENST00000397426|hu_mus|hu_hu_hu_mus_False|28_28 (ssRNA)
# RNA: GGGAGUUCUACAGUCCGACGAUCCUCUUCCAUACUCAUGGCAUCCUGAAUUGACUCAGCUUCAACAUUUUGACUAGGCCCUUCCAUACUGUCAUCAGUCCAGGCAUCAGACUGGGCGGCCUGUCCUUGGGAUGAAUCAGUCCCCAACAGAGGAUUGAGCAUCA
# B7: chr1:109605286:109605287:-_ENSG00000197780_ENST00000461096|hu_mus|hu_hu_hu_mus_True|8_58 (ssRNA)
# RNA: GGGAGUUCUACAGUCCGACGAUCAAGUUUCAGAGUAACAUUCAGUAACCUCUUUAAAUGCAAUUAUCCUUAUUAUAAACUAAGGGCAAUAAUAAUUUAAUACCGUAAGUGAACUACACACAAAGCCGUGUAUUCAGAAAUGGUCAACAGAGGAUUGAGCAUCA
# B8: chr3:196089228:196089229:-_ENSG00000163960_ENST00000296328|hu_mus|motif|central (ssRNA)
# RNA: GGGAGUUCUACAGUCCGACGAUCUUCCCUUUUUCCAUCUGGGUACCGCAGCAUCAGCUGUGCUUUUGGUCCAUUUACAUCGGUCCCCUCCACUAUUCCAUCUGACUUUUCAGGUGACAUCUCCAAGACCUCAGAAUCCAUGGACAACAGAGGAUUGAGCAUCA
# B9: 44187758_44190831_1501_CDS_ENSG00000138095_ENST00000260665|human|control|control (ssRNA)
# RNA: GGGAGUUCUACAGUCCGACGAUCCAGACAUCCAUUUUCCUGCAAAAUGGCUCGUGCUGAGUUUACACUAUCAAAGCAUGGAAUCACAUAAUCUGUAUAUGUUUCCUGAUCAGGAUGUACUCCCAAUUCUUGCAUUCCUUUGAGCAACAGAGGAUUGAGCAUCA
# B10: chr6:13037117:13037118:+_ENSMUSG00000029571_ENSMUST00000031556|mus_mus|motif|central (ssRNA)
# RNA: GGGAGUUCUACAGUCCGACGAUCGCGUGUACUGUACUGUUUGUGAAUGGGCAUCGACACAUUUGUAUGUGUGUGUACACGGUAUAUGUGGUAUUGUACUGUCCGUGAACGGUCAUCCGAGAAGAGUGCCAGUUCUCUCCGCCUCAACAGAGGAUUGAGCAUCA
# B11: chr7:54825262:54825263:-_ENSG00000132432_ENST00000352861|hu_hu|hu_hu_hu_mus_False|8_8 (ssRNA)
# RNA: GGGAGUUCUACAGUCCGACGAUCCUGCCGGCUGGGCUCCACAAACUGCAUUACCUGAUCCAUGUUUGUUGGAUGGCGGAUUGAGAGCGUAGAGACACGUAGCUCAGGAGAGAACCGAGCCCAACGGCACCGGAACCUGGCAACCAACAGAGGAUUGAGCAUCA
# B12: 134633473_134633593_1156_CDS_ENSMUSG00000042423_ENSMUST00000048896|mouse|control|control (ssRNA)
# RNA: GGGAGUUCUACAGUCCGACGAUCGGCAGCAGCCAUGGCCCCUGGUCCAGUCAACUCCUCACCUGCCUCAUAGAAGCGUGGUGGCCUGGCCAGGCGUGGGGGCCCUGCCAACCAGGUUGGCUCUGGGAAGCCUGCACAGCGCUCCAACAGAGGAUUGAGCAUCA
# B13: chr7:135612270:135612271:-_ENSG00000105887_ENST00000393085|hu_hu|motif|central (ssRNA)
# RNA: GGGAGUUCUACAGUCCGACGAUCUUUUCUGAGAUGUUAAGUAUUACUUCAGUGGAGAACAAAACUUACUUAACCUUUCGCGGAUGCAUGUAGUACCAGAAAGCAAACAUGGUUUUAGCUUCCUUUACUCAAAAUAUGAACAUUCAACAGAGGAUUGAGCAUCA
# B14: chr1:46159212:46159213:+_ENSG00000159596_ENST00000372025|hu_mus|hu_hu_hu_mus_True|98_98 (ssRNA)
# RNA: GGGAGUUCUACAGUCCGACGAUCUCUGAUCCCUCCCAAGAAAGAUAGGAAACCGGCUCCAUAAGCCAUCUGAGUGAAAGCUAGGACGGGGAUAUAAGACUUUGUUAUUACCAUGAGAAGUGGGGGAGCAGUAAAGGGGAUUAACAACAGAGGAUUGAGCAUCA
# Target: T1, UNK ZnF1-3
# Experiment: nsRBNS (natural sequence RNA bind-n-seq); RBNS binding buffer (assumed for nsRBNS): 25 mM Tris pH 7.5, 150 mM KCl, 3 mM MgCl2, 0.01% Triton X-100, 500 ug/ml BSA, 20 U/ml SUPERase-In, 4 C; UNK is unkempt and MSI1 is Musashi-1; names of the RNAs are library labels; protein concentration not given here; high values mean tight binding
row,Binder,binding signal [enrichment R]
1,B1,1.14
2,B2,0.573
3,B3,0.558
4,B4,0.772
5,B5,0.518
6,B6,0.98
7,B7,0.626
8,B8,0.724
9,B9,0.697
10,B10,0.746
11,B11,1.59
12,B12,0.965
13,B13,0.65
14,B14,1.26

# From publication PMC12136788
